# Experimental data reported in PMC12136788.
# The other results are listed elsewhere or left out.
# B1: chr7:74195289:74195308:+|CDS_3pUTR|ENSG00000106682|msi1_unk|total|mutant (ssRNA)
# RNA: GGGAGUUCUACAGUCCGACGAUCGCGACGCCCCUCAAUCAAGCCGCCAAUCCCAACUCUGCUAUCUUCGGGGGUGCCAGGCCCCGAGAGGAAGUCGUUCAAAAGGAGCAAGAAUGAGCCUGCGGUUGGGAGGGAAUGGGGCGUCAACAGAGGAUUGAGCAUCA
# B2: chr2:10440579:10440691:-|3pUTR|ENSG00000115758|unk|total|mutant (ssRNA)
# RNA: GGGAGUUCUACAGUCCGACGAUCUAACUGCAAGUUCCGCUUGAAUUAAGGGAUUUGGGGGGACCAUGUAACUUAAUUACUGCCCGUUUUGAAAUGUCUUUGUAAGAGCCGGGUCGCCAUGAUGCAGCCAUAUGGAAGACCCGGCAACAGAGGAUUGAGCAUCA
# B3: chr9:91409354:91409467:-|CDS|ENSG00000165030|unk|FALSE|unique (ssRNA)
# RNA: GGGAGUUCUACAGUCCGACGAUCAAUGAAAGACAGUGGCUACAAAGUUUCUGACCCAGAGAACUUGUAUUUGAAGCAGGGGAUAGCAAACUUAUCUGCAGAGGUUGUCUCACUCAAGAGACUUAUAGCCACACAACCAAUCUCCAACAGAGGAUUGAGCAUCA
# B4: chr12:118033712:118033825:-|3pUTR|ENSG00000176871|unk|FALSE|unique (ssRNA)
# RNA: GGGAGUUCUACAGUCCGACGAUCCCUCCGCUGGGAACGAUGGCUUCUGCCUAGUACCUAUCCUUGUGUUUCUGAUGCAGUGGUAGCAUUGGUUCAAGUUCUCUCCUGCUGUGGUCAGAGUUGCUUCGAUGUUGGCCAAGUGCUCAACAGAGGAUUGAGCAUCA
# B5: chr1:62654060:62654161:-|CDS|ENSG00000116641|unk|total|mutant (ssRNA)
# RNA: GGGAGUUCUACAGUCCGACGAUCCUUGUUUUCUACCCAUCUCUUAUCCCAACUUUUUACAAAGGUGCCCCUUACCGAAGCAGCCGAUCCAGUGGAUUUGGAAGAUUACCUCAUUACUCAUCCUUUGGCUGUGGAUUCUGGGCCCAACAGAGGAUUGAGCAUCA
# B6: chr7:2728618:2728646:-|3pUTR|ENSG00000146535|msi1_unk|FALSE|overlapping (ssRNA)
# RNA: GGGAGUUCUACAGUCCGACGAUCUUUAAUUUCACUGUUAAUCCUUAUUGUCUUUUUUAUUAAGAUGUUGGAAAAGCAGGAGGUAGUUGUGCCUCAAUUAUUGCAAAAAUGUAACAAUAAAGUUCCUCAAAAUAAGAUCUGUUCCAACAGAGGAUUGAGCAUCA
# B7: chr1:94517210:94517403:+|3pUTR|ENSG00000117528|unk|total|mutant (ssRNA)
# RNA: GGGAGUUCUACAGUCCGACGAUCAACAAAUUAACCCGAUACAGAAUAAUGGAGAACAAGUUGUUAAAACAUUUAAUAUUAUACCGGAUAUUGCUAAUUGUGUAUAUGUUGGUUUAAUUAAUAAUAUGUACUAAGAAUGUCCUUCAACAGAGGAUUGAGCAUCA
# B8: chr21:25881051:25881209:-|3pUTR|ENSG00000142192|msi1_unk|FALSE|overlapping (ssRNA)
# RNA: GGGAGUUCUACAGUCCGACGAUCUUUUUUUUCCAUGACUGCAUUUUACUGUACAGAUUGCUGCUUCUGCUAUAUUUGUGAUAUAGGAAUUAAGAGGAUACACACGUUUGUUUCUUCGUGCCUGUUUUAUGUGCACACAUUAGGCAACAGAGGAUUGAGCAUCA
# B9: chr19:51872534:51873706:-|CDS|ENSG00000161551|control|control|control (ssRNA)
# RNA: GGGAGUUCUACAGUCCGACGAUCCCUAGUGGGCAGAAAUGUAGUGAUUGUGGAACAACCUUUUCCAAGAAAUCAAGCCUUUGUAGUUAAUCAGGAAUUUGAACAGAGAAUAAGCCUCACAAAUGAAGUGAAUGUGGCCCCAUCCAACAGAGGAUUGAGCAUCA
# B10: chr16:3727180:3727281:-|3pUTR|ENSG00000005339|msi1|FALSE|bound_elsewhere (ssRNA)
# RNA: GGGAGUUCUACAGUCCGACGAUCAAUGCAAGCUUAUAAUGUAUCCCGAUAACUUUGUGAUGUUUCGGGAAGAUUUUUUUCUAUAGUGAACUCUGUGGGCGUCUCCCAGUAUUACCCUGGAUGAUAGGAAUUGACUCCGGCGUGCAACAGAGGAUUGAGCAUCA
# B11: chr6:11183298:11183399:-|3pUTR|ENSG00000111859|msi1|FALSE|unique (ssRNA)
# RNA: GGGAGUUCUACAGUCCGACGAUCACAUUUCACAUUUUUAAAACCAAAUGUUCAAUCUGUAUUACUCUUUGCCGUCUUGUAUGUAGAGGCUAUUUUUAAAUCAUUAAAUUUUUAGAUCUCUGUUUUCAUAGCCACUGGGUUUUCCAACAGAGGAUUGAGCAUCA
# B12: chr10:128098031:128098192:-|3pUTR|ENSG00000148773|msi1|total|mutant (ssRNA)
# RNA: GGGAGUUCUACAGUCCGACGAUCCAUCUUCAUUUACUUUCCACUUUGCCCCCUGUCCUCUCUGUGUUCCCCAAAUCAGAGAACCGCCCGCCAUCCCCCAGGUCACCUGUCUGGAUUCCUCCCCAUUCACCCACCUUGCCAGGUCAACAGAGGAUUGAGCAUCA
# B13: chr13:25097967:25098071:+|CDS|ENSG00000151846|unk|FALSE|unique (ssRNA)
# RNA: GGGAGUUCUACAGUCCGACGAUCAGAACUUCUUUAUAUGCUCGAGUCUCCAGAGUCACUCCGUUCUAAGGUUGAUGAAGCUGUAGCUGUACUACAAGCCCACCAAGCUAAAGAGGCUACCCAGAAAGCAGUUAACAGUGCUACCAACAGAGGAUUGAGCAUCA
# B14: chr3:149172415:149172516:+|3pUTR|ENSG00000163755|unk|total|mutant (ssRNA)
# RNA: GGGAGUUCUACAGUCCGACGAUCUUACCGUGCCGUGGUAACUAUUCACUUCUUAAUUUAUGACCUCAAUCAAUUUAAUUGUCCCGAAUGUAAAAAGUCUUUAAGACAUAAGAAUUCCUCAAAGAAGCCAUACAUUUUUUAAGGCAACAGAGGAUUGAGCAUCA
# B15: chr1:21603657:21603912:-|CDS|ENSG00000076864|control|control|control (ssRNA)
# RNA: GGGAGUUCUACAGUCCGACGAUCAUUGCUUAUUCCUGGGAAAAGUGCGAGUAGAUUCGGACGCCGGGGCAGUGCCAUAGGCAUAGGAACCGUGGAAGAGGUUGUCGUCCGCGGGGCCGCCGGCUCUGGAGGCUGCCUGCACGCCAACAGAGGAUUGAGCAUCA
# B16: chr5:128187618:128187661:+|3pUTR|ENSG00000064651|msi1_unk|FALSE|overlapping (ssRNA)
# RNA: GGGAGUUCUACAGUCCGACGAUCUCCUUUAUAAGUCAUUAAAAUAAUGUUUCAUCAAAUGGUUAAAUGGACCACUGGUUUCUUAGAGAAAUGUUUUUAGGCUUAAUUCAUUCAAUUGUCAAGUACACUUAGUCUUAAUACACUCAACAGAGGAUUGAGCAUCA
# B17: chr5:36975901:36976008:+|CDS|ENSG00000164190|unk|total|mutant (ssRNA)
# RNA: GGGAGUUCUACAGUCCGACGAUCAUGAAAUCCGGCAAGGAUGAAAAAGAGCAGAGUGAGAAAGCGGCAAUGUAUGAUAUAAUCCGUUCUCCAUCCAAGGACUCUACUAAACUUACAUUAAGACUUUCUCGUGUAAGGUCUUCACAACAGAGGAUUGAGCAUCA
# B18: chr3:115809552:115809653:-|3pUTR|ENSG00000185565|unk|FALSE|unique (ssRNA)
# RNA: GGGAGUUCUACAGUCCGACGAUCCUCCCUCACCUCUCCUCACCUCCACCCCCUCCCCAGAGCACUAGUCAUGCCGCAAAUGCUAGGAAGUGCCAUUUUCAUUUUCUCCACUGUGCGUGUGUGCUCAAGUCUUUCGCUCUCACGCAACAGAGGAUUGAGCAUCA
# B19: chr12:2800410:2800520:+|CDS|ENSG00000004478|unk|total|mutant (ssRNA)
# RNA: GGGAGUUCUACAGUCCGACGAUCAAAUACAAGCAAGCUUUACUACAGUAUAAGAAGAUCGUGUCUUGGCUGGAAUAUGAGUCCCGUUUUUCCAAUGAGGAAGCACAGAAAGCACAGGCCCUUCGACUGGCCUCUCACCUCAACCAACAGAGGAUUGAGCAUCA
# B20: chr12:71139710:71139848:-|CDS|ENSG00000127324|control|control|control (ssRNA)
# RNA: GGGAGUUCUACAGUCCGACGAUCUUUUGGUUCUGAAGAUGUAGGCUCUAGCUCCUACGUUGCUGUGGACAUAUUGAUUGCUGUAGGUGCCAUCAUCAUGAUUCUGGGCUUCCUGGGAUGCUGCGGUGCUAUAAAAGAAAGUCGCAACAGAGGAUUGAGCAUCA
# B21: ENSG00000142669:stop:overlap|stop_codon|ENSG00000142669|stop_codon|NA|stop_codon (ssRNA)
# RNA: GGGAGUUCUACAGUCCGACGAUCAGUACUGUGGGGUAUGGGCUGGGGGACGGGGGGGUGGGGGGAGUGUUGGAAGAGGACUCUAGCCAGGGUCAUAUCUGCCACAAAGCACUUGGGCCCCCUGCAUUCAGGUGACCACCCCUCCAACAGAGGAUUGAGCAUCA
# B22: ENSG00000188706:stop:overlap|stop_codon|ENSG00000188706|stop_codon|NA|stop_codon (ssRNA)
# RNA: GGGAGUUCUACAGUCCGACGAUCAAGAGAUGCCACCUCCAGAGCCCCCAGAGCCACCACAGGAGGCAGCUGAAGCUGAGAAGUAGCCUAUCUAUGGAAGAGACUUUUGUUUGUGUUUAAUUAGGGCUAUGAGAGAUUUCAGGUCAACAGAGGAUUGAGCAUCA
# Molecular target: MSI1 full-length (mouse, UniProt Q61474 1-362)
# Assay: nsRBNS (natural sequence RNA bind-n-seq); RBNS binding buffer (assumed for nsRBNS): 25 mM Tris pH 7.5, 150 mM KCl, 3 mM MgCl2, 0.01% Triton X-100, 500 ug/ml BSA, 20 U/ml SUPERase-In, 4 C; UNK is unkempt and MSI1 is Musashi-1; names of the RNAs are library labels; protein concentration not given here; high values mean tight binding
# Sequence of UniProt Q61474 (Q61474 whole entry): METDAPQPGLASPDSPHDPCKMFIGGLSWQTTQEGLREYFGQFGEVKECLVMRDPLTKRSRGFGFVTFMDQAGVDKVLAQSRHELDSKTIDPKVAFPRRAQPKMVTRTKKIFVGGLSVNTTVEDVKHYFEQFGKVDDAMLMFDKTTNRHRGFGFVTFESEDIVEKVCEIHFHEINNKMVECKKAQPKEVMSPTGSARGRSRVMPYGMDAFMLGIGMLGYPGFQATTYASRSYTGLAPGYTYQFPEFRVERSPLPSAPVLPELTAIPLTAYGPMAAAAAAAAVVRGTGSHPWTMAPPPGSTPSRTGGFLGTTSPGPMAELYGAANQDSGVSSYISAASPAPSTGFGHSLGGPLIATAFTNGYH
row,Binder,binding signal [enrichment R]
1,B1,0.371
2,B2,0.57
3,B3,0.662
4,B4,0.295
5,B5,0.571
6,B6,0.334
7,B7,0.723
8,B8,1.09
9,B9,1.45
10,B10,0.573
11,B11,2.37
12,B12,1.07
13,B13,0.377
14,B14,0.742
15,B15,0.478
16,B16,15.5
17,B17,0.273
18,B18,0.88
19,B19,0.381
20,B20,0.324
21,B21,0.5
22,B22,0.544
